Results from the supplement of paper PMC3334620.
Over roughly 33,000 sequences, “E-score (-0.5 to 0.5)” has its median near -0.021; the highest 2% begin near 0.32. The list shows a part of the results.

Biological target: T1, Zap1 (UniProt P47043)
T1 sequence: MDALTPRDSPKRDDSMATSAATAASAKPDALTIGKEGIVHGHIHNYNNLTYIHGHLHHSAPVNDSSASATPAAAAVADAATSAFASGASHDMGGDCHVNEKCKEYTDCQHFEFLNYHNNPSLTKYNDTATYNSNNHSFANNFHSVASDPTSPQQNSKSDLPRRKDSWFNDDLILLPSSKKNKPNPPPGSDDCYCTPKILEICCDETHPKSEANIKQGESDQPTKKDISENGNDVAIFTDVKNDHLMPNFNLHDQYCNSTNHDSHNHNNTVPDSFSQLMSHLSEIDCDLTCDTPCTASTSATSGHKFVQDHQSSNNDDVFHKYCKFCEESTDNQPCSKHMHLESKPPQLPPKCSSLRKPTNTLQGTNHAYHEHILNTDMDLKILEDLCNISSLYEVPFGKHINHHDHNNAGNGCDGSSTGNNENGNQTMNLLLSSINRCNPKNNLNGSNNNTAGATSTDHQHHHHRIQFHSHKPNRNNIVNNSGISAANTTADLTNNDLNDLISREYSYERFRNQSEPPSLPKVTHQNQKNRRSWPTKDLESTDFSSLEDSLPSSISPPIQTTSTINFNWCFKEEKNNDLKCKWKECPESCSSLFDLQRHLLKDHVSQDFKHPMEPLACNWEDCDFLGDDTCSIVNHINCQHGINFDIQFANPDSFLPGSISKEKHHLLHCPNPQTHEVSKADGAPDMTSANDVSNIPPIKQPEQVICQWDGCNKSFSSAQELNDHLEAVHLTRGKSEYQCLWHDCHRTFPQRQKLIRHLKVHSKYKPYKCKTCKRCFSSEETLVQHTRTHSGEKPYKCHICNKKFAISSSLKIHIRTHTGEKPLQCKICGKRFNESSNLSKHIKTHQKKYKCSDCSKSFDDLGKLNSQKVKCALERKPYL
Experiment: PBM E-score (8-mer binding enrichment) (E-score (-0.5 to 0.5)); higher = stronger / more preferred TF binding; most listed sequences are background and not binding sites
Conditions: protein concentration: 200 nM; construct: GST-full length
Experimental: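 Universal 'all 10-mer' protein binding microarrays (Agilent AMADID 015681) probed with GST-tagged S. cerevisiae TFs (full-length or DBD) made by in vitro transcription/translation (PURExpress), about 100-200 nM. Bound TF was detected with fluorescent anti-GST. Each ungapped 8-mer (which stands for itself and its reverse complement) is scored by the PBM enrichment score (E-score), a modified Wilcoxon-Mann-Whitney statistic from -0.5 to +0.5, computed with the Universal PBM Analysis Suite. Scale: above 0.35 generally sequence-specific binding.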

Sequence	PBM E-score
TCGCGACA	0.0398
CCAGGGGA	-0.0512
CTTACCGA	0.00642
AAGCATGA	-0.0767
TCGCAAAA	-0.159
GGCGATAC	-0.237
TCGCTCAA	0.126
ACGCGCCA	-0.135
AGTCAAGC	-0.199
CGATGGTA	0.157
CAAAGGAC	-0.139
ATTTTTAA	0.227
GCAACACC	0.00095
CCACCCAA	-0.0177
AATAACGG	0.169
GACGATGC	-0.171
TCGCGAGA	0.117
AGCTACGG	-0.14
ATAAGGAG	-0.0355
CTCCTGTC	0.00203
GCCGTTAC	0.068
CTCCATCA	-0.222

Sequence	PBM E-score
GGTGGCAC	0.00539
AATGGGCA	-0.104
CGAAACCG	0.0622
GCCACAGA	-0.281
CAACTATC	0.0235
AAAAATGA	0.00224
CTGTGCAC	-0.0626
CAACAAGG	0.248
CCGTCCAC	-0.114
AGGTTATC	0.463
TCCTGAAA	0.0825
AATGAAAA	0.0893
ACTGTCGG	-0.252
AATGGTGG	-0.078
AGACTGTA	-0.103
ATCACGTC	-0.252
GTGGCGCA	-0.0557
CTACGATA	0.11
GCGTCGGA	-0.0408
CCTATTCC	-0.0321
ATAAAAGA	-0.00372
GCTCTAAA	-0.028

Sequence	PBM E-score
AGATCGGG	-0.202
ACAAAGCC	0.072
AGGTTCGA	-0.0741
AATGATTG	-0.0873
ATGTCAAC	-0.114
AGGATCCG	-0.224
TAAACACA	0.0468
GGGTGACA	0.252
TCCAGCAA	-0.106
AGTCGGAA	-0.0728
AGCAGAAT	0.0481
CGGTTTAG	0.0251
ATGAATAA	0.0541
AGGGAACT	0.0955
GCTATGGA	-0.0408
GACGGACC	0.139
CGCGCATC	-0.114
CAAGGGCG	-0.136
ATCTGGGA	-0.121
CTCCTTCC	-0.249
ACGCAGAT	-0.128
CAAGATTC	-0.0578

Sequence	PBM E-score
ATATATGC	-0.01
GAATCAGA	0.0557
AGATAGAC	-0.098
CTGCTTGA	-0.172
ACGCTTGG	-0.0987
AGCTAACT	-0.0554
ACAGTATC	-0.00884
GAGGAATA	0.046
ATCCCGAG	-0.15
ATTAGGCC	-0.013
CATGTTAA	0.139
GCCGCGAC	0.0853
AATCATCG	-0.132
GGGCGACA	-0.209
TAGAATGA	0.0391
ACCAGTCC	-0.232
ACTTTTTG	0.248
GTACTACA	0.24
AGCTACTA	0.00657
GACTTATC	-0.211
